# The campaign covered roughly 290,000 compounds. About 1,100 (0.38%) were called active. The shares of active, inactive and inconclusive entries below differ from those in the screen. Calls follow the shape of the dose curve; as a rule, active = well fitted inhibition curve with a large enough effect; inconclusive = small, poorly fitted or top-dose-only effect, or another doubt; inactive = no such curve, though single readings can be large or run the other way. Where the call is inconclusive, the potency comes from a doubtful curve fit.
# Biological target: Pyruvate kinase (Leishmania mexicana) (UniProt Q27686)
# Sequence of UniProt Q27686 (Q27686 whole entry, looked up): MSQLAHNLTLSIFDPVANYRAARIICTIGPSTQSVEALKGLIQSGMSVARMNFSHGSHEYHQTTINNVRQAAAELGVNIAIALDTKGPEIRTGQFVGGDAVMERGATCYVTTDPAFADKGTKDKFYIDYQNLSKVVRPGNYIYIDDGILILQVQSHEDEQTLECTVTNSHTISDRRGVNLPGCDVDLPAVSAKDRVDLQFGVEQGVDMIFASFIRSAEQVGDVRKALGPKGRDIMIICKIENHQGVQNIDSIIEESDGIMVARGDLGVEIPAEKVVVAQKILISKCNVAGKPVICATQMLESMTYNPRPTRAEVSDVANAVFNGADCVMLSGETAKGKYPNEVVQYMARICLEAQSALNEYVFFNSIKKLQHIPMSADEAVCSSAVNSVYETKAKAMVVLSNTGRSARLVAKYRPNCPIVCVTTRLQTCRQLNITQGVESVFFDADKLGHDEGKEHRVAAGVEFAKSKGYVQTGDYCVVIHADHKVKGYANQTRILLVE
# Test: qHTS Assay for Inhibitors of Leishmania Mexicana Pyruvate Kinase (LmPK)
# Conditions: purified LmPK, Kinase-Glo ATP luminescence, 1 h; activity change, negative = inhibition: at 57.5 µM (top of the series) unless noted
# How it was run: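 Pyruvate kinase activity monitored as ATP production (luciferase luminescence). Conditions: 0.1 nM enzyme, 0.5 mM PEP, 0.1 mM ADP, 1 h, RT; normalized against uninhibited and no-enzyme wells.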
# % is scaled to controls: 0 for no effect and ±100 for the full control effect; potency is read from the fitted curve at half-maximal effect; tags tell the direction and shape of the fitted curve.
Compound,Potency,"activity change, negative = inhibition"
Cc1ccc(-c2cc3nc(C)cc(NCc4ccco4)n3n2)cc1,active: 28.2 µM,–
Cc1sc2nc(-c3cccs3)nc(N3CCCN(C)CC3)c2c1C,–,inactive: 2.43%
CCOc1ccc(NC(=O)c2ccc(-c3csc(C)n3)cc2)cc1,–,inactive: -3.99%
N/C(=N\OC(=O)c1ccc(Cl)c(Cl)c1)c1cccnc1,–,inactive: -7.65%
COc1ccc(OC)c(S(=O)(=O)ON2C(=O)c3ccccc3C2=O)c1,"inconclusive: 31.6 µM [falling, partial curve]",–
Cc1ccc(C(=O)O/N=C(\N)c2ccccn2)cc1C,"inconclusive: 31.6 µM [falling, single point]",–
Cc1nn(CCc2n[nH]c(=S)n2-c2ccc(F)cc2)c(C)c1[N+](=O)[O-],"inconclusive: 12.6 µM [falling, partial curve]",–
CCCSCCCNC(=O)c1ccc(C)c(NC(=O)C2=C(C)OCCS2)c1,–,inactive: -0.612%
NC(=O)Cc1ccc2sc(-c3ccccc3)nc2c1,"inconclusive: 25.1 µM [falling, single point]",–
CCc1ccc(C(=O)COC(=O)c2ccccc2OC)cc1,"inconclusive: 31.6 µM [falling, single point]",–
CCn1cc(Br)c(C(=O)Nc2ccccc2C(=O)OC)n1,–,inactive: -1%
COc1ccccc1Nc1nc2ccccc2n1C,"inconclusive: 22.4 µM [falling, single point]",–
O=C(Nc1ccc2c(c1)OCO2)Nc1ccccc1F,"inconclusive: 22.4 µM [falling, partial curve]",–
N#CCCN(Cc1ccccc1)C(=S)NC(=O)c1ccccc1,"inconclusive: 22.4 µM [falling, single point]",–
OCc1c[nH]c(=S)n1CCOc1cccc(C(F)(F)F)c1,"inconclusive: 17.8 µM [falling, partial curve]",–
O=[N+]([O-])c1ccccc1N/N=C\c1ccccc1F,"inconclusive: 15.8 µM [falling, partial curve]",–
O=C(COc1ccc(F)cc1)Nc1nccs1,"inconclusive: 22.4 µM [falling, partial curve]",–
COc1ccc(-c2cn(-c3ccc(OC)cc3)c(=S)[nH]2)cc1,"inconclusive: 1.41 µM [falling, partial curve]",–
O=C(NC(=S)NC1CCCC1)c1ccccc1Br,"inconclusive: 35.5 µM [falling, single point]",–
CN1CC(=O)N(CC(=O)Nc2ccc(N(C)C)cc2)c2ccccc2C1=O,"inconclusive: 31.6 µM [falling, single point]",–
CC(NC(=O)N1CCN(c2ccccc2F)CC1)c1ccc(F)c(F)c1 (stereo unspecified),–,inactive: -4.85%
O=C(O)c1cnc(-c2ccccc2)nc1-c1ccccc1,–,inactive: 12.3%
CS(=O)(=O)c1ccc2nc(NC(=O)c3ccco3)sc2c1,"inconclusive: 17.8 µM [falling, partial curve]",–
Cc1cc2ncc(-c3cccs3)nc2cc1C,–,inactive: -18%
Cc1ccc(C(=O)CC(c2cccs2)S(=O)(=O)c2ccc(C)cc2)cc1 (stereo unspecified),"inconclusive: 14.1 µM [falling, partial curve]",–
Nc1ccc2nc(-c3ccccc3)[nH]c2c1,active: 14.1 µM,–

Compound,Potency,"activity change, negative = inhibition"
O=C(COc1ccccc1)Nc1nccs1,active: 14.1 µM,–
C=CCn1c(C)cc(C2=NNC(=NC(C)(C)C)SC2)c1C,"inconclusive: 22.4 µM [falling, partial curve]",–
O=C(CSc1nccc(=O)[nH]1)N1N=C2/C(=C/c3ccco3)CCCC2C1c1ccco1 (stereo unspecified),–,inactive: 1.08%
CC(C)CN1CCC(=O)N(CCN=[N+]=[N-])CC1,–,inactive: 11%
Cc1ccc(OCc2cc(C(=O)N(C)Cc3cc(C4CC4)n[nH]3)no2)cc1C,–,inactive: 9.96%
CCOC(=O)CNC(=O)CSc1cc(C)nc2ccc(OC)cc12,"inconclusive: 25.1 µM [falling, single point]",–
C/C(=N\Nc1nccnc1Cl)c1ccc(F)cc1,"inconclusive: 39.8 µM [falling, single point]",–
COc1cc(-c2n[nH]c(=S)n2-c2cccc(C(F)(F)F)c2)cc(OC)c1OC,"inconclusive: 20 µM [falling, partial curve]",–
COCn1c(COc2ccccc2)nc2ccccc21,"inconclusive: 22.4 µM [falling, partial curve]",–
CC[n+]1c(/C=C/C=C/N(C(C)=O)c2ccccc2)sc2cc(OC)ccc21,–,inactive: -11.7%
Cc1nc(Nc2nc3ccccc3o2)nc2c1CCC2,active: 15.8 µM,–
COc1cc(/C=N/O)ccc1OCc1ccc(C(=O)O)cc1,"inconclusive: 14.1 µM [falling, partial curve]",–
CN(C)c1ccc(C=Nc2ccccc2C(N)=O)cc1,"inconclusive: 22.4 µM [falling, partial curve]",–
O=C(/C=C/c1ccc2c(c1)OCCCO2)c1ccccc1O,"inconclusive: 20 µM [falling, partial curve]",–
S=c1[nH]nc(CSCc2ccccc2Cl)n1-c1ccccc1,active: 12.6 µM,–
Cc1ccc(NC(=S)NCc2ccccn2)cc1,–,inactive: 0.54%
c1ccc(-c2noc(-c3cccnc3)n2)nc1,active: 14.1 µM,–
Cc1ccc(-n2[nH]c(C)c(/C=N/Nc3ccc([N+](=O)[O-])cc3[N+](=O)[O-])c2=O)cc1C,"inconclusive: 12.6 µM [falling, partial curve]",–
Cc1cc(C(=O)Nc2ccccc2)c2ccccc2n1,–,inactive: -7.39%
O=C(CCCc1ccccc1)c1ccc2c(c1)OCCO2,"inconclusive: 25.1 µM [falling, partial curve]",–
O=C(Nc1ccc(NC(=O)c2ccco2)nc1)c1ccccn1,"inconclusive: 12.6 µM [falling, partial curve]",–
COCCNC(=O)/C(C#N)=C/c1ccc(OCC(=O)NC2CCCCC2)cc1,"inconclusive: 28.2 µM [falling, single point]",–
COCCN(Cc1cc2cc3c(cc2nc1Cl)OCO3)C(C)=O,"inconclusive: 15.8 µM [falling, partial curve]",–
Cc1cccc(NC(=O)c2ccc(NCC3CCCO3)c([N+](=O)[O-])c2)n1 (stereo unspecified),–,inactive: 0.1%
COc1ccc(OC)c(-n2c(-c3cccc(C)c3)n[nH]c2=S)c1,"inconclusive: 20 µM [falling, partial curve]",–
